Experimental data reported in the supplement of paper PMC4967469.
A lower IC50 marks a more sensitive line; where the fit passes the top or lowest dose, that dose stands as a limit. AUC is the area under the same curve over the 256-fold range up to the top dose, as a fraction; values near 1 show little effect. For some assays here: A top dose marked as inferred was calculated from the reported fits. For some assays here: Where an entry number is given, a second screen of the drug exists; the two often differ.

Tests used:
Experiment in all cases: Viability of human cancer cell lines after 72 h of drug (GDSC screen)
LAQ824 = compound: O=C(/C=C/c1ccc(CN(CCO)CCc2c[nH]c3ccccc23)cc1)NO [LAQ824]; conditions: top dose 1.024 µM; top dose inferred
Procedure: (§1)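 Human cancer cell lines in 384-well plates, medium with 10% serum, drug for 72 h over a 256-fold dose range (nine 2-fold or five 4-fold steps up to the top dose). Adherent lines were fixed and stained with the nucleic acid dye Syto60, suspension lines read with resazurin; signal relative to control wells, capped at 0 and 100%. One two-parameter sigmoid per drug and line, fitted in a mixed model over all curves with the slope shared within a line.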

OSI-930 = compound: O=C(Nc1ccc(OC(F)(F)F)cc1)c1sccc1NCc1ccnc2ccccc12 [OSI-930]; conditions: top dose 10.24 µM
Procedure: as §1

VNLG/124 = compound: CCCC(=O)OCc1ccc(OC(=O)/C=C(C)/C=C/C=C(C)/C=C/C2=C(C)CCCC2(C)C)cc1 [VNLG/124]; conditions: top dose 5.12 µM; top dose inferred
Procedure: as §1

Tamoxifen = compound: CC/C(=C(\c1ccccc1)c1ccc(OCCN(C)C)cc1)c1ccccc1 [Tamoxifen]; conditions: top dose 5 µM
Procedure: as §1

Elesclomol = compound: CN(NC(=O)CC(=O)NN(C)C(=S)c1ccccc1)C(=S)c1ccccc1 [Elesclomol]; conditions: top dose 0.2 µM; top dose inferred
Procedure: as §1

BX-912 = compound: O=C(Nc1cccc(Nc2ncc(Br)c(NCCc3cnc[nH]3)n2)c1)N1CCCC1 [BX-912]; conditions: top dose 10.24 µM; top dose inferred
Procedure: as §1

Masitinib = compound: Cc1ccc(NC(=O)c2ccc(CN3CCN(C)CC3)cc2)cc1Nc1nc(-c2cccnc2)cs1 [Masitinib]; conditions: top dose 20 µM
Procedure: as §1

HG-5-88-01 = compound: COc1cc(N2CCC(C(N)=O)CC2)ccc1Nc1nc(N)c(Cl)c(Nc2ccccc2S(=O)(=O)C(C)C)n1 [HG-5-88-01]; conditions: top dose 10 µM; top dose inferred
Procedure: as §1

Bleomycin = compound: Cc1c(N)nc([C@H](CC(N)=O)NC[C@H](N)C(N)=O)nc1C(=O)N[C@H](C(=O)N[C@H](C)[C@@H](O)[C@H](C)C(=O)N[C@H](C(=O)NCCc1nc(-c2nc(C(=O)NCCC[S+](C)C)cs2)cs1)[C@@H](C)O)[C@@H](OC1OC(CO)C(O)C(O)C1OC1OC(CO)C(O)C(OC(N)=O)C1O)c1cnc[nH]1 [Bleomycin]
Procedure: as §1

NSC-87877 = compound: O=S(=O)(O)c1ccc2cc(N=Nc3cc(S(=O)(=O)O)c4cccnc4c3O)ccc2c1 [NSC-87877]; conditions: top dose 16 µM; top dose inferred
Procedure: as §1

[1] = top dose 50 µM, screen: GDSC drug entry 1378, top dose inferred
[2] = top dose 64 µM, screen: GDSC drug entry 190

Row | Cell Line | AUC (LAQ824) | IC50 (LAQ824) [µM] | AUC (OSI-930) | IC50 (OSI-930) [µM] | AUC (VNLG/124) | IC50 (VNLG/124) [µM] | AUC (Tamoxifen) | IC50 (Tamoxifen) [µM] | AUC (Elesclomol) | IC50 (Elesclomol) [µM] | AUC (BX-912) | IC50 (BX-912) [µM] | AUC (Masitinib) | IC50 (Masitinib) [µM] | AUC (HG-5-88-01) | IC50 (HG-5-88-01) [µM] | AUC (Bleomycin; [1]) | IC50 (Bleomycin; [1]) [µM] | AUC (Bleomycin; [2]) | IC50 (Bleomycin; [2]) [µM] | AUC (NSC-87877) | IC50 (NSC-87877) [µM]
1 | DMS-273 (small cell lung carcinoma, adherent) | 0.451 | 0.0466 | 0.965 | > 10.2 | 0.985 | > 5.12 | 0.983 | > 5 | 0.445 | 0.00877 | 0.94 | > 10.2 | 0.701 | 4.76 | 0.983 | > 10 | 0.586 | 5.45 | 0.494 | 3.85 | 0.985 | > 16
2 | SW982 (soft tissue, adherent) | 0.472 | 0.0535 | 0.983 | > 10.2 | 0.947 | > 5.12 | 0.967 | > 5 | 0.449 | 0.00905 | 0.985 | > 10.2 | 0.87 | 19.6 | 0.886 | > 10 | 0.227 | 0.487 | 0.209 | 0.541 | 0.985 | > 16
3 | SK-PN-DW (Ewing sarcoma, adherent) | 0.455 | 0.048 | 0.966 | > 10.2 | 0.977 | > 5.12 | 0.938 | > 5 | 0.75 | 0.0677 | 0.714 | 2.66 | 0.861 | 17.9 | 0.876 | > 10 | 0.785 | 22.3 | 0.283 | 0.944 | 0.944 | > 16
4 | OV-90 (ovary, adherent) | 0.468 | 0.051 | 0.939 | > 10.2 | 0.974 | > 5.12 | 0.97 | > 5 | 0.476 | 0.0106 | 0.832 | 9.25 | 0.885 | > 20 | 0.865 | > 10 | 0.903 | > 50 | 0.481 | 3.5 | 0.86 | > 16
5 | SNU-C1 (large intestine, suspension) | 0.616 | 0.154 | 0.949 | > 10.2 | 0.965 | > 5.12 | 0.927 | > 5 | 0.948 | > 0.2 | 0.93 | > 10.2 | 0.955 | > 20 | 0.759 | 5.11 | 0.969 | > 50 | 0.873 | > 64 | 0.97 | > 16
6 | RXF393 (kidney, adherent) | 0.525 | 0.0768 | 0.955 | > 10.2 | 0.963 | > 5.12 | 0.938 | > 5 | 0.483 | 0.011 | 0.84 | > 10.2 | 0.816 | 17 | 0.933 | > 10 | 0.609 | 7.02 | 0.816 | 54.6 | 0.978 | > 16
7 | Daudi (Burkitt lymphoma, suspension) | 0.388 | 0.0328 | 0.815 | 4.73 | 0.99 | > 5.12 | 0.97 | > 5 | 0.977 | > 0.2 | 0.643 | 1.51 | 0.815 | 9.26 | 0.914 | > 10 | 0.792 | 19.5 | 0.369 | 1.84 | 0.986 | > 16
8 | SW1710 (bladder, adherent) | 0.238 | 0.0108 | 0.984 | > 10.2 | 0.985 | > 5.12 | 0.968 | > 5 | 0.403 | 0.00673 | 0.901 | > 10.2 | 0.917 | > 20 | 0.96 | > 10 | 0.543 | 4.1 | 0.202 | 0.506 | 0.97 | > 16
9 | NCI-H1993 (lung adenocarcinoma, adherent) | 0.547 | 0.0893 | 0.983 | > 10.2 | 0.982 | > 5.12 | 0.951 | > 5 | 0.983 | > 0.2 | 0.963 | > 10.2 | 0.976 | > 20 | 0.902 | > 10 | 0.916 | > 50 | 0.916 | > 64 | 0.983 | > 16
10 | G-401 (kidney, adherent) | 0.338 | 0.0216 | 0.934 | > 10.2 | 0.947 | > 5.12 | 0.979 | > 5 | 0.421 | 0.00742 | 0.864 | > 10.2 | 0.878 | > 20 | 0.85 | 8.79 | 0.099 | < 0.195 | 0.471 | 3.3 | 0.984 | > 16
11 | ES6 (Ewing sarcoma, adherent) | 0.377 | 0.027 | 0.91 | > 10.2 | 0.978 | > 5.12 | 0.97 | > 5 | 0.659 | 0.0386 | 0.818 | 7.63 | 0.884 | > 20 | 0.938 | > 10 | 0.869 | > 50 | 0.209 | 0.438 | 0.981 | > 16
12 | H2731 (mesothelioma, adherent) | 0.555 | 0.0923 | 0.972 | > 10.2 | 0.984 | > 5.12 | 0.982 | > 5 | 0.402 | 0.00645 | 0.448 | 0.451 | 0.847 | 18 | 0.95 | > 10 | 0.349 | 1.11 | 0.821 | 44.1 | 0.959 | > 16
13 | NEC8 (testis, adherent) | 0.281 | 0.0172 | 0.973 | > 10.2 | 0.983 | > 5.12 | 0.991 | > 5 | 0.513 | 0.0135 | 0.932 | > 10.2 | 0.906 | 19.9 | 0.989 | > 10 | 0.025 | < 0.195 | 0.043 | < 0.25 | 0.991 | > 16
14 | HARA (lung squamous cell carcinoma, adherent) | 0.638 | 0.165 | 0.97 | > 10.2 | 0.966 | > 5.12 | 0.981 | > 5 | 0.509 | 0.0133 | 0.765 | 4.35 | 0.869 | > 20 | 0.937 | > 10 | 0.608 | 6.52 | 0.281 | 0.852 | 0.977 | > 16
15 | HCC-78 (lung adenocarcinoma, adherent) | 0.522 | 0.0741 | 0.93 | > 10.2 | 0.983 | > 5.12 | 0.919 | > 5 | 0.977 | > 0.2 | 0.932 | > 10.2 | 0.878 | > 20 | 0.654 | 1.81 | 0.395 | 1.52 | 0.442 | 2.71 | 0.983 | > 16
16 | LoVo (large intestine, adherent) | 0.339 | 0.0227 | 0.961 | > 10.2 | 0.984 | > 5.12 | 0.986 | > 5 | 0.779 | 0.0827 | 0.987 | > 10.2 | 0.987 | > 20 | 0.963 | > 10 | 0.446 | 2.22 | 0.115 | < 0.25 | 0.984 | > 16
17 | PCI-4B (head and neck, adherent) | 0.393 | 0.033 | 0.939 | > 10.2 | 0.984 | > 5.12 | 0.975 | > 5 | 0.475 | 0.0108 | 0.833 | 6.11 | 0.896 | > 20 | 0.941 | > 10 | 0.239 | 0.58 | 0.43 | 2.61 | 0.986 | > 16
18 | DOK (head and neck, adherent) | 0.678 | 0.26 | 0.975 | > 10.2 | 0.966 | > 5.12 | 0.971 | > 5 | 0.566 | 0.0208 | 0.933 | > 10.2 | 0.958 | > 20 | 0.66 | 2.18 | 0.596 | 6.53 | 0.917 | > 64 | 0.973 | > 16
19 | SBC-1 (small cell lung carcinoma, suspension) | 0.642 | 0.155 | 0.989 | > 10.2 | 0.989 | > 5.12 | 0.988 | > 5 | 0.976 | > 0.2 | 0.978 | > 10.2 | 0.989 | > 20 | 0.979 | > 10 | 0.888 | > 50 | 0.954 | > 64 | 0.989 | > 16
20 | OVKATE (ovary, adherent) | 0.731 | 0.465 | 0.979 | > 10.2 | 0.964 | > 5.12 | 0.977 | > 5 | 0.747 | 0.106 | 0.949 | > 10.2 | 0.906 | > 20 | 0.936 | > 10 | 0.975 | > 50 | 0.967 | > 64 | 0.972 | > 16
21 | KCL-22 (chronic myeloid leukaemia, suspension) | 0.375 | 0.0307 | 0.861 | 6.5 | 0.962 | > 5.12 | 0.982 | > 5 | 0.802 | 0.0804 | 0.803 | 4.14 | 0.293 | 0.366 | 0.986 | > 10 | 0.867 | 33.3 | 0.548 | 5.28 | 0.984 | > 16
22 | HUTU-80 (digestive system, adherent) | 0.335 | 0.0244 | 0.925 | > 10.2 | 0.99 | > 5.12 | 0.991 | > 5 | 0.02 | < 0.000781 | 0.344 | 0.257 | 0.885 | 15.3 | 0.985 | > 10 | 0.125 | 0.278 | 0.022 | < 0.25 | 0.991 | > 16
23 | DBTRG-05MG (glioma, adherent) | 0.591 | 0.118 | 0.962 | > 10.2 | 0.984 | > 5.12 | 0.982 | > 5 | 0.575 | 0.0208 | 0.936 | > 10.2 | 0.901 | > 20 | 0.868 | > 10 | 0.558 | 4.62 | 0.554 | 5.76 | 0.976 | > 16
